Some of the results follow. Cut-off read from the data, not from the text of the source: active = 3.2 or more and inactive = the rest. Most of these values are background signal.
Experiments:
Experiment in all cases: enrichment score (SH2-bound / input frequency) (ratio); bacterial display of known human phosphotyrosine sites (pTyr-Var adds point mutants) read by sequencing; higher = stronger binding; tyrosines were phosphorylated by kinases first
Conditions in all cases: peptide library: pTyr-Var
SHP2 C-SH2 domain E139D = molecular target: SHP2 C-SH2 domain E139D
[1] = molecular target: SHP2 C-SH2 domain wild-type
SHP2 N-SH2 domain L43F = molecular target: SHP2 N-SH2 domain L43F
SHP2 N-SH2 domain T42A = molecular target: SHP2 N-SH2 domain T42A
SHP2 N-SH2 domain T52S = molecular target: SHP2 N-SH2 domain T52S
[2] = molecular target: SHP2 N-SH2 domain wild-type
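Note: displayed peptides selected on beads carrying the immobilized SH2 domain, with library peptides lacking any tyrosine serving as negative controls.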

Row | Binder | enrichment score (SHP2 C-SH2 domain E139D) | enrichment score [1] | enrichment score (SHP2 N-SH2 domain L43F) | enrichment score (SHP2 N-SH2 domain T42A) | enrichment score (SHP2 N-SH2 domain T52S) | enrichment score [2]
1 | EIIPFYGMSTF [FNDC3B_Y175_YF] | inactive: 0.783 | inactive: 0.75 | inactive: 0.53 | inactive: 0.618 | inactive: 0.584 | inactive: 0.722
2 | QGIPRYHSQSP [FOXF1_Y331] | inactive: 0.889 | inactive: 0.668 | inactive: 0.813 | inactive: 0.758 | inactive: 0.73 | inactive: 0.536
3 | QGIPWYHSQSP [FOXF1_Y331_R330W] | inactive: 1.48 | inactive: 1.56 | inactive: 1.43 | inactive: 1.3 | inactive: 1.08 | inactive: 1.24
4 | KPPFSYNALIR [FOXG1_Y186_M191R] | inactive: 1.1 | inactive: 1.03 | inactive: 1.09 | inactive: 1.09 | inactive: 1.24 | inactive: 1.33
5 | KVPCHYDDPGK [FOXG1_Y246_R244C] | inactive: 1.08 | inactive: 1.09 | inactive: 1.18 | inactive: 0.884 | inactive: 0.807 | inactive: 1.07
6 | LVRPPYSYLAL [FOXI1_Y126_S129L] | inactive: 0.947 | inactive: 1.45 | inactive: 1.31 | active: 5.04 | inactive: 1.32 | inactive: 0.865
7 | LVRPPYSFSAL [FOXI1_Y126_YF] | inactive: 0.922 | inactive: 0.874 | inactive: 1.06 | inactive: 0.851 | inactive: 1.13 | inactive: 0.942
8 | AGADGYDYLAP [FOXL2_Y186_G187D] | inactive: 0.634 | inactive: 0.627 | inactive: 0.577 | inactive: 0.58 | inactive: 0.522 | inactive: 0.608
9 | AGADGYDFLAP [FOXL2_Y186_G187D_YF] | inactive: 0.718 | inactive: 0.742 | inactive: 0.631 | inactive: 0.522 | inactive: 0.644 | inactive: 0.787
10 | PSPMPYASCQM [FOXL2_Y215] | inactive: 0.558 | inactive: 0.663 | inactive: 0.534 | inactive: 0.606 | inactive: 0.499 | inactive: 0.668
11 | PSPMPYACCQM [FOXL2_Y215_S217C] | inactive: 1.13 | inactive: 1.18 | inactive: 1 | inactive: 0.977 | inactive: 0.811 | inactive: 1.06
12 | ASFGPYTRVQS [FOXL2_Y258_YF] | inactive: 0.822 | inactive: 1.78 | inactive: 0.763 | inactive: 1.13 | inactive: 0.788 | inactive: 0.675
13 | SGTFQYIIAKF [FOXL2_Y83_I80T_YF] | inactive: 0.825 | inactive: 0.902 | inactive: 1.02 | inactive: 0.684 | inactive: 0.852 | inactive: 1.02
14 | SGIYQYNIAKF [FOXL2_Y83_I84N] | inactive: 0.941 | inactive: 1 | inactive: 2.01 | inactive: 1.42 | inactive: 1.66 | inactive: 0.973
15 | RPAFTYATLIR [FOXP3_Y342_P339A] | inactive: 1 | inactive: 2.55 | inactive: 0.822 | inactive: 2.37 | inactive: 1.15 | inactive: 0.646
16 | DAGTDYVGISR [FREM2_Y2061] | inactive: 0.482 | inactive: 0.399 | inactive: 0.429 | inactive: 0.362 | inactive: 0.562 | inactive: 0.498
17 | SGDVQYRSSVR [FREM2_Y2158_T2153S] | inactive: 0.434 | inactive: 0.434 | inactive: 0.428 | inactive: 0.373 | inactive: 0.451 | inactive: 0.53
18 | YIPSNYVAEDR [FRK_Y104] | inactive: 0.709 | inactive: 0.586 | inactive: 0.727 | inactive: 0.679 | inactive: 0.906 | inactive: 0.884
19 | YVPSNYVAEDR [FRK_Y104_I100V] | inactive: 0.748 | inactive: 0.772 | inactive: 0.769 | inactive: 0.775 | inactive: 0.767 | inactive: 0.853

Row | Binder | enrichment score (SHP2 C-SH2 domain E139D) | enrichment score [1] | enrichment score (SHP2 N-SH2 domain L43F) | enrichment score (SHP2 N-SH2 domain T42A) | enrichment score (SHP2 N-SH2 domain T52S) | enrichment score [2]
20 | FVPSNYVAEDR [FRK_Y104_I100V_YF] | inactive: 0.994 | inactive: 0.916 | inactive: 0.98 | inactive: 0.857 | inactive: 1.11 | inactive: 0.835
21 | KRGIDYILWHM [FRMD1_Y225_R228W] | active: 3.89 | active: 3.59 | active: 3.56 | inactive: 3.15 | active: 3.24 | active: 3.41
22 | VNNLVYENING [FRS2_Y306_K303N] | inactive: 2.24 | inactive: 2.06 | inactive: 2.15 | inactive: 2.54 | inactive: 2.21 | inactive: 1.57
23 | FKELVYETVRV [FSHB_Y76] | inactive: 1.07 | inactive: 1.01 | inactive: 0.991 | inactive: 0.88 | inactive: 0.822 | inactive: 0.93
24 | GGGGGYNCSSG [FUS_Y232_R234C] | inactive: 0.77 | inactive: 0.87 | inactive: 0.642 | inactive: 0.635 | inactive: 0.6 | inactive: 1.02
25 | LSCLAYSGKDA [FXN_Y205_S202C] | inactive: 1.25 | inactive: 1.65 | inactive: 1.34 | inactive: 1.06 | inactive: 1.1 | inactive: 1.7
26 | GTHCHYKAPTV [FZD9_Y569] | active: 3.36 | inactive: 3.14 | active: 3.32 | inactive: 3.02 | active: 3.26 | inactive: 2.67
27 | GTHCHYKAPIV [FZD9_Y569_T573I] | active: 3.29 | active: 3.4 | inactive: 2.79 | inactive: 2.55 | inactive: 3.19 | inactive: 3.11
28 | GTSLIYWTLFT [G6PC3_Y214] | inactive: 0.923 | inactive: 1.05 | inactive: 0.929 | inactive: 0.912 | inactive: 1.22 | inactive: 1.13
29 | GTSLIYWILFT [G6PC3_Y214_T216I] | inactive: 2.02 | inactive: 1.82 | inactive: 1.88 | inactive: 2.4 | inactive: 2.03 | inactive: 2.02
30 | FARNSYVAGQF [G6PD_Y107_YF] | inactive: 0.652 | inactive: 0.709 | inactive: 0.62 | inactive: 0.595 | inactive: 0.529 | inactive: 0.665
31 | YCIDHYLGKEM [G6PD_Y202_R198C] | inactive: 0.992 | inactive: 1.07 | inactive: 1 | inactive: 0.818 | inactive: 1.08 | inactive: 0.867
32 | YPIDHYLGKEM [G6PD_Y202_R198P] | inactive: 1.14 | inactive: 0.919 | inactive: 0.838 | inactive: 0.946 | inactive: 0.998 | inactive: 0.751
33 | FPIDHYLGKEM [G6PD_Y202_R198P_YF] | inactive: 1.12 | inactive: 0.795 | inactive: 1.05 | inactive: 0.869 | inactive: 0.983 | inactive: 0.824
34 | YSIDHYLGKEM [G6PD_Y202_R198S] | inactive: 0.893 | inactive: 0.986 | inactive: 0.95 | inactive: 1.19 | inactive: 1.13 | inactive: 1.51
35 | KATKGYLDDPT [G6PD_Y322_E317K] | inactive: 0.711 | inactive: 0.53 | inactive: 0.601 | inactive: 0.618 | inactive: 0.727 | inactive: 0.721
36 | EATKVYLDDPT [G6PD_Y322_G321V] | inactive: 0.664 | inactive: 0.724 | inactive: 0.85 | inactive: 0.652 | inactive: 0.695 | inactive: 0.876
37 | PNKAVYTKMMT [G6PD_Y401_E398K] | inactive: 1.11 | inactive: 2.04 | inactive: 1.04 | inactive: 2.29 | inactive: 0.737 | inactive: 0.828

— the supplement of paper PMC10369915
